Results from article PMC10868759.
These are yes or no findings as the source states them, for the method shown. Some results given as binding are weak or reduced against the parent protein; the word gives no strength.

T1: TIP1-Cub-LexA-VP16 (split-ubiquitin bait) (Arabidopsis thaliana) (UniProt Q52T38)
T1 sequence: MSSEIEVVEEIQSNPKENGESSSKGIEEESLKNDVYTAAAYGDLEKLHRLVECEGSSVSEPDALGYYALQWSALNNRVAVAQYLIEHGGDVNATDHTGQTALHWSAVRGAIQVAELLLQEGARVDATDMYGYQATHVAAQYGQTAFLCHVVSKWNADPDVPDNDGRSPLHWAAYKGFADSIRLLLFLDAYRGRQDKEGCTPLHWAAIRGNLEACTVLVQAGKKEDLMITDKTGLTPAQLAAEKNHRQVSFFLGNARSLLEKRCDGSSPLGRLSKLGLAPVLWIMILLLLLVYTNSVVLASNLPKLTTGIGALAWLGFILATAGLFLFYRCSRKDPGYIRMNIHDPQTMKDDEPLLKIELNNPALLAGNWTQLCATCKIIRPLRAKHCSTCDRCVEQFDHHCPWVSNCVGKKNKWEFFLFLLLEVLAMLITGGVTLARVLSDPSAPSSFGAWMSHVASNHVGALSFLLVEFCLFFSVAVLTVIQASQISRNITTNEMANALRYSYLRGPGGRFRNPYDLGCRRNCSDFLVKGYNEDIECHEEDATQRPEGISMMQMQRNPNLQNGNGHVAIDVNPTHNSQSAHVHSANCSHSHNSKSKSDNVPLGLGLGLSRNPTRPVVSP

B1: NubG-CESA3 (split-ubiquitin prey) (protein, UniProt Q941L0 1-1065)
chain: MESEGETAGKPMKNIVPQTCQICSDNVGKTVDGDRFVACDICSFPVCRPCYEYERKDGNQSCPQCKTRYKRLKGSPAIPGDKDEDGLADEGTVEFNYPQKEKISERMLGWHLTRGKGEEMGEPQYDKEVSHNHLPRLTSRQDTSGEFSAASPERLSVSSTIAGGKRLPYSSDVNQSPNRRIVDPVGLGNVAWKERVDGWKMKQEKNTGPVSTQAASERGGVDIDASTDILADEALLNDEARQPLSRKVSIPSSRINPYRMVIMLRLVILCLFLHYRITNPVPNAFALWLVSVICEIWFALSWILDQFPKWFPVNRETYLDRLALRYDREGEPSQLAAVDIFVSTVDPLKEPPLVTANTVLSILAVDYPVDKVSCYVSDDGAAMLSFESLAETSEFARKWVPFCKKYSIEPRAPEWYFAAKIDYLKDKVQTSFVKDRRAMKREYEEFKIRINALVSKALKCPEEGWVMQDGTPWPGNNTRDHPGMIQVFLGQNGGLDAEGNELPRLVYVSREKRPGFQHHKKAGAMNALVRVSAVLTNGPFILNLDCDHYINNSKALREAMCFLMDPNLGKQVCYVQFPQRFDGIDKNDRYANRNTVFFDINLRGLDGIQGPVYVGTGCVFNRTALYGYEPPIKVKHKKPSLLSKLCGGSRKKNSKAKKESDKKKSGRHTDSTVPVFNLDDIEEGVEGAGFDDEKALLMSQMSLEKRFGQSAVFVASTLMENGGVPPSATPENLLKEAIHVISCGYEDKSDWGMEIGWIYGSVTEDILTGFKMHARGWRSIYCMPKLPAFKGSAPINLSDRLNQVLRWALGSVEILFSRHCPIWYGYNGRLKFLERFAYVNTTIYPITSIPLLMYCTLPAVCLFTNQFIIPQISNIASIWFLSLFLSIFATGILEMRWSGVGIDEWWRNEQFWVIGGVSAHLFAVFQGILKVLAGIDTNFTVTSKASDEDGDFAELYLFKWTTLLIPPTTLLIVNLVGVVAGVSYAINSGYQSWGPLFGKLFFAFWVIVHLYPFLKGLMGRQNRTPTIVVVWSVLLASIFSLLWVRIDPFTSRVTGPDILECGINC
B2: NubG-CESA6 (split-ubiquitin prey) (protein, UniProt Q94JQ6 1-1084)
chain: MNTGGRLIAGSHNRNEFVLINADENARIRSVQELSGQTCQICRDEIELTVDGEPFVACNECAFPVCRPCYEYERREGNQACPQCKTRFKRLKGSPRVEGDEEEDDIDDLDNEFEYGNNGIGFDQVSEGMSISRRNSGFPQSDLDSAPPGSQIPLLTYGDEDVEISSDRHALIVPPSLGGHGNRVHPVSLSDPTVAAHPRPMVPQKDLAVYGYGSVAWKDRMEEWKRKQNEKLQVVRHEGDPDFEDGDDADFPMMDEGRQPLSRKIPIKSSKINPYRMLIVLRLVILGLFFHYRILHPVKDAYALWLISVICEIWFAVSWVLDQFPKWYPIERETYLDRLSLRYEKEGKPSGLSPVDVFVSTVDPLKEPPLITANTVLSILAVDYPVDKVACYVSDDGAAMLTFEALSETAEFARKWVPFCKKYCIEPRAPEWYFCHKMDYLKNKVHPAFVRERRAMKRDYEEFKVKINALVATAQKVPEDGWTMQDGTPWPGNSVRDHPGMIQVFLGSDGVRDVENNELPRLVYVSREKRPGFDHHKKAGAMNSLIRVSGVLSNAPYLLNVDCDHYINNSKALREAMCFMMDPQSGKKICYVQFPQRFDGIDRHDRYSNRNVVFFDINMKGLDGLQGPIYVGTGCVFRRQALYGFDAPKKKKGPRKTCNCWPKWCLLCFGSRKNRKAKTVAADKKKKNREASKQIHALENIEEGRVTKGSNVEQSTEAMQMKLEKKFGQSPVFVASARMENGGMARNASPACLLKEAIQVISCGYEDKTEWGKEIGWIYGSVTEDILTGFKMHSHGWRSVYCTPKLAAFKGSAPINLSDRLHQVLRWALGSVEIFLSRHCPIWYGYGGGLKWLERLSYINSVVYPWTSLPLIVYCSLPAICLLTGKFIVPEISNYASILFMALFSSIAITGILEMQWGKVGIDDWWRNEQFWVIGGVSAHLFALFQGLLKVLAGVDTNFTVTSKAADDGEFSDLYLFKWTSLLIPPMTLLIINVIGVIVGVSDAISNGYDSWGPLFGRLFFALWVIIHLYPFLKGLLGKQDRMPTIIVVWSILLASILTLLWVRVNPFVAKGGPILEICGLDCL

Target: T1, TIP1-Cub-LexA-VP16 (split-ubiquitin bait) (Arabidopsis thaliana)
Test: two-hybrid; split-ubiquitin membrane yeast two-hybrid, NMY51; TIP1-Cub-LexA-VP16 bait, NubG preys; growth on -Ade/-Leu/-Trp/-His with 5 mM 3-amino-1,2,4-triazole, four days at 30°C

Row | Binder | binding
1 | B1 | binds
2 | B2 | binds
